# In publication PMC7819943, “Rice protein-binding microarrays: a tool to detect cis-acting elements near promoter regions in rice”:
# The other results are listed elsewhere or left out.
# Biological target: T1, OsWOX13 (Oryza sativa, UniProt Q5QMM3 1-267)
# T1 sequence: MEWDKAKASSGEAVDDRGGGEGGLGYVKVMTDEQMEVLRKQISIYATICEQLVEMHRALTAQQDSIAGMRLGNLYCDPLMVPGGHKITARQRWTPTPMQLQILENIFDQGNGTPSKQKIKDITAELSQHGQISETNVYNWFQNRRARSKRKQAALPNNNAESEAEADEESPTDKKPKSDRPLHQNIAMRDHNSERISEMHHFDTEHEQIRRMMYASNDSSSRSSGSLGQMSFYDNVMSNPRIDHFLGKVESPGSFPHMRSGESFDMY
# Test: protein-binding microarray (RPBM); PBS, 2% BSA, 51.3 ng/ul salmon testes DNA, 50 uM zinc acetate, 200 nM TF, 25 C, 1 h; high values mean tight binding
# Conditions: protein: recombinant; tags: N-terminal polyhistidine and DsRed monomer fusion (pET32a); label: CyDye5-dUTP incorporated in the synthesized complementary strand; 3' TTTTT single-stranded linker to array surface; dsDNA, one strand shown
# Outline: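 The binding signal is fluorescence intensity per array feature (arbitrary units). Readings came from an Axon 4000B scanner after a washed, 2% BSA-blocked, double-stranded custom Agilent array had been incubated for 1 h at 25 °C with 200 nM protein and 50 µM zinc acetate. The protein was a Ni–NTA-purified transcription factor fused N-terminally to polyhistidine and DsRed, expressed in E. coli BL21-CodonPlus.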
row,Sequence,binding signal
1,CATCACTATAGAGTATAAATTGATGGCCGGTGATCAGTGGCGGAGTCACCTAGTGCAG,6650 fluorescence intensity (a.u.)
2,CGCAAACTGCGATTCAATTCAATCACTGGTATTACGGCTACGGAGTCACCTAGTGCAG,31300 fluorescence intensity (a.u.)
3,TGGAGGCACATTAATTAATTATTATCATGATCCATTTGCCCGGAGTCACCTAGTGCAG,13000 fluorescence intensity (a.u.)
4,ACGGAATGAACACTAATTTACTTAATACATAGAACCACGGCGGAGTCACCTAGTGCAG,19400 fluorescence intensity (a.u.)
5,GTGACGACCCGTTAATTATAGGCATATTAGAGGCCGTCACCGGAGTCACCTAGTGCAG,7910 fluorescence intensity (a.u.)
6,TCCATATTGTCTATTATTGCTTTCTGCAAAGAACTCTACTCGGAGTCACCTAGTGCAG,3450 fluorescence intensity (a.u.)
7,GCTAAACAGAATTGAGTACCTACTCCCTCTGAACCTGTAACGGAGTCACCTAGTGCAG,10600 fluorescence intensity (a.u.)
8,TGCTGACAGCAAGTGTCGAGGCTGATCATGATCACTGCGGCGGAGTCACCTAGTGCAG,4960 fluorescence intensity (a.u.)
9,GGCTGACTGGACAGGCTGACATGTGGGGCCACGTGGGTCCCGGAGTCACCTAGTGCAG,11500 fluorescence intensity (a.u.)
10,TGAAATGTAATTGTGATTTTATCTTGAAATGATCCGATGGCGGAGTCACCTAGTGCAG,31400 fluorescence intensity (a.u.)
11,AAAATAGTTAATACTTAATTAATCATGCAATAATACAAGCCGGAGTCACCTAGTGCAG,7300 fluorescence intensity (a.u.)
12,CCGGATTGGGATCCTCTGACTTTACTCAGAGAGCTATAGTCGGAGTCACCTAGTGCAG,6180 fluorescence intensity (a.u.)
13,GGCCCAATTGACAAGGTGGGCTTTCTCCTCGTGGCCCACACGGAGTCACCTAGTGCAG,3640 fluorescence intensity (a.u.)
14,CACTATTAATTACTCGTACATCATATTATCTATCCATTACCGGAGTCACCTAGTGCAG,13200 fluorescence intensity (a.u.)
15,TTTGAAAATTTAATTGCAACGAATTTAATGGTGCAATCGGCGGAGTCACCTAGTGCAG,15900 fluorescence intensity (a.u.)
16,AGCTAAATTTTGATCCCATGAATTTTCTATACTCTAGCAGCGGAGTCACCTAGTGCAG,7030 fluorescence intensity (a.u.)
17,TTATTTAATTTGGCATGGTTGACAGGATCAGACTTATTCACGGAGTCACCTAGTGCAG,13100 fluorescence intensity (a.u.)
18,ATTGTGATGGAATTCGTTAGTTTTGAAGTTGCAAACTGCACGGAGTCACCTAGTGCAG,4110 fluorescence intensity (a.u.)
19,CCATTAATTTCTACGTAAGCATTCGTAGCTATGGAGGAGTCGGAGTCACCTAGTGCAG,10300 fluorescence intensity (a.u.)
20,AAAATGACTGAAATTTGGATCTAAATTTTGGATCTAAACACGGAGTCACCTAGTGCAG,23400 fluorescence intensity (a.u.)
21,AATTGATGACTCTGTAATGCAGGTCAAGTCGATCAGGTAACGGAGTCACCTAGTGCAG,3470 fluorescence intensity (a.u.)

row,Sequence,binding signal
1,CAGCACATGATTAGAATATCATCTCAATCTCAATCTGTACCGGAGTCACCTAGTGCAG,21600 fluorescence intensity (a.u.)
2,CGGATGATTATTTGTTTCCTAGACAAACAGTCAAACACACCGGAGTCACCTAGTGCAG,26700 fluorescence intensity (a.u.)
3,TTTTCACGATAATTATGTGGTAACCGCCAAACCATGGGGTCGGAGTCACCTAGTGCAG,15400 fluorescence intensity (a.u.)
4,TTCAAGTAATTGTCATGACGCTTACCTCTATAAGAAGGCACGGAGTCACCTAGTGCAG,10000 fluorescence intensity (a.u.)
5,GCATATACAATTTGGCCCAAATTAACTTGATTTATCTGGGCGGAGTCACCTAGTGCAG,8350 fluorescence intensity (a.u.)
6,TCAAGTGATTTTGCCTAGACACAAGAGTCCACGTGGTTGGCGGAGTCACCTAGTGCAG,5480 fluorescence intensity (a.u.)
7,CGGATTAATTAGGCTTAATAAATTCATCTCGCAGTTTCCTCGGAGTCACCTAGTGCAG,50800 fluorescence intensity (a.u.)
8,GTGATTTGCACACTTGATCTAACACAAGTTTGTTCTCGCTCGGAGTCACCTAGTGCAG,6300 fluorescence intensity (a.u.)
9,GGTGAATTGAATGGTTGATTGCCTATCTCATCTTCCGCAGCGGAGTCACCTAGTGCAG,64100 fluorescence intensity (a.u.)
10,TAGATTTAATTACAACGAATACAACAGAGCAATCGGATTGCGGAGTCACCTAGTGCAG,14400 fluorescence intensity (a.u.)
11,TGACAAATAATTAATTGTACATATTAGAAGTAGTATAAAGCGGAGTCACCTAGTGCAG,23600 fluorescence intensity (a.u.)
12,ATCTGTAAGTGATATGTATTAATTAAGAAATCATATCGGACGGAGTCACCTAGTGCAG,7170 fluorescence intensity (a.u.)
13,ATATAAAATGTGACCGACTGATTGTATAAATAGGATAGAACGGAGTCACCTAGTGCAG,5410 fluorescence intensity (a.u.)
14,ACTACAGATTGCAACTAAAGTATTCCGTTCATCCTCCTACCGGAGTCACCTAGTGCAG,5330 fluorescence intensity (a.u.)
15,CTAATAAATTAGGTACCACCGTATTATGTACTTCCTCCATCGGAGTCACCTAGTGCAG,11700 fluorescence intensity (a.u.)
16,ATTATTAATTTCCCTTCCTATTTGAGTGCTTCAAAATAAACGGAGTCACCTAGTGCAG,3690 fluorescence intensity (a.u.)
17,AAGGCTGATTATAAAATAATTCTGTAACTGCCTTGGCCTGCGGAGTCACCTAGTGCAG,29500 fluorescence intensity (a.u.)
18,GAGAATTTGGTGCTAATCACACTCCCTGCCATTGGAGGATCGGAGTCACCTAGTGCAG,4930 fluorescence intensity (a.u.)
19,TAAATTAGGACGGAATGACTTTGATTTTCACACATGCTGGCGGAGTCACCTAGTGCAG,8030 fluorescence intensity (a.u.)
20,CTGTAAATAAATTAATTGAACTGCACGTTCATAATCATAACGGAGTCACCTAGTGCAG,14200 fluorescence intensity (a.u.)
21,TACTTATAAATTAATTTTAATTTTCTAATAAGCCAAATAACGGAGTCACCTAGTGCAG,24900 fluorescence intensity (a.u.)
